Data on 110 sequences can be found in PMC10668032.

The list shows a part of the results. At the low end of the ranking the order means little.

The assay deals with SIX1-Q177R homeodomain (UniProt Q15475). Briefly: universal protein binding microarray. Conditions: Universal all-10-mer PBM (8x60K, AMADID 030236), 300 nM GST-tagged protein, Alexa Fluor 488 anti-GST; buffer, salt, pH and temperature not stated; high values mean tight binding; most listed sequences are background and not binding sites; double strand, one strand shown.
Consider TCAAACGA, for which the binding signal is -0.214 E-score.

For the sequence CCGGACGA, the binding signal was determined as 0.185 E-score.

On to AACCCCAC, for which the binding signal turned out to be 0.222 E-score.

In the case of CAATCAGC, the binding signal is -0.128 E-score.

As for GGTTCCAA, the binding signal was -0.0165 E-score.

ACCATGAA: the binding signal is 0.162 E-score.

With CAGACGAG, the binding signal is -0.16 E-score.

On to AGTACTCA, for which the binding signal is -0.142 E-score.

With CCAAACGA, the binding signal worked out at 0.00661 E-score.

Consider AATCTTTC, for which the binding signal is -0.17 E-score.

Turning to ATGCGCGG, the binding signal was -0.0645 E-score.

As to CCTCACAA, the binding signal came to 0.0782 E-score.

With GCGTCGCA, the binding signal was 0.0692 E-score.

Consider AACGGCGG, for which the binding signal came out at 0.0531 E-score.

As to GAGCTGAA, the binding signal was -0.246 E-score.

With CTTGTCCC, the binding signal is -0.272 E-score.

Turning to CGTCGCTC, the binding signal is -0.11 E-score.

On to ATGACCGA, for which the binding signal was -0.125 E-score.

AAGTATGG: the binding signal was found to be 0.0111 E-score.

With GAACTTCC, the binding signal is -0.352 E-score.

Turning to CCTACCTA, the binding signal came to 0.0692 E-score.

TACAGAGA: the binding signal was -0.277 E-score.

With CAGGGTCA, the binding signal amounted to 0.0436 E-score.

TCCACTAA: the binding signal came out at 0.127 E-score.

On to ACCTCGCA, for which the binding signal was -0.0564 E-score.

Consider CAATGAGG, for which the binding signal was -0.144 E-score.

CGGGTATC: the binding signal is 0.374 E-score.

CGCTGTAG: the binding signal is -0.0217 E-score.

As to AATGGCAA, the binding signal was -0.306 E-score.

Regarding CGTCCAAA, the binding signal is -0.179 E-score.

With CTAAAGCC, the binding signal is -0.22 E-score.

Take GTGGCTCA: the binding signal was -0.194 E-score.

CTTGAATA: the binding signal was -0.108 E-score.

As to CAGTGAAA, the binding signal was -0.152 E-score.

As to ATCTCTCG, the binding signal was 0.0732 E-score.

On to AGGGAATA, for which the binding signal is -0.319 E-score.

On to CACTCATC, for which the binding signal is -0.0811 E-score.

CGTTTTAG: the binding signal was -0.199 E-score.

Take ATGTGGGG: the binding signal came to 0.0394 E-score.

Take CTCAGTGA: the binding signal is -0.104 E-score.

Regarding GATGATAA, the binding signal was -0.0972 E-score.

As to GTTAAGAA, the binding signal was found to be 0.047 E-score.

Regarding ACGTACCG, the binding signal is -0.0746 E-score.

On to AGTCGGCG, for which the binding signal is 0.0331 E-score.

For the sequence CTGTCTCC, the binding signal is -0.2 E-score.

As for CAACCAAA, the binding signal is -0.0632 E-score.

Consider AACCGTCT, for which the binding signal was -0.135 E-score.

With CGAACTTC, the binding signal was -0.321 E-score.

With ACCTTTTA, the binding signal is -0.0514 E-score.

On to AAAGGCCC, for which the binding signal was -0.299 E-score.

Consider AGAACGTC, for which the binding signal is -0.185 E-score.

For the sequence GTGTATTA, the binding signal was 0.401 E-score.

With AGTCCTGA, the binding signal was -0.0259 E-score.

Regarding GCTGCTAC, the binding signal was -0.0755 E-score.

As for CGGTCAGC, the binding signal is -0.0314 E-score.

Regarding AGTGGGAG, the binding signal was -0.00769 E-score.

On to GCTGGAAA, for which the binding signal came to 0.0196 E-score.

With ATGGCTGG, the binding signal is -0.103 E-score.

Turning to AGAGTGAT, the binding signal is -0.0616 E-score.

Take CATTATAC: the binding signal came out at 0.0866 E-score.

On to AGACACCC, for which the binding signal worked out at 0.469 E-score.

Regarding CCCAACCG, the binding signal was -0.145 E-score.

As for CCCACTGC, the binding signal was -0.0586 E-score.

Regarding CCCCGCCC, the binding signal was determined as 0.223 E-score.

Take ATATTCAC: the binding signal was -0.0871 E-score.

As to CAGAGCCC, the binding signal is -0.221 E-score.

As for CCGTGCGC, the binding signal was determined as 0.0832 E-score.

Take GCGCATCA: the binding signal was -0.15 E-score.

AGCTTTGG: the binding signal is -0.177 E-score.

Regarding CGCGTCTA, the binding signal was -0.0609 E-score.

Take GGAGTGAA: the binding signal worked out at 0.124 E-score.

Consider TCCTGGAA, for which the binding signal is -0.108 E-score.

For TAGCGCGA, the binding signal turned out to be 0.16 E-score.

As to CCAGTTTC, the binding signal was -0.161 E-score.

Turning to CATCTTAG, the binding signal was -0.0978 E-score.

Turning to ATCCGATC, the binding signal turned out to be 0.213 E-score.

As for CCCCACAC, the binding signal was found to be 0.266 E-score.

On to ATTGGTTA, for which the binding signal was -0.18 E-score.

Consider CCCACCTC, for which the binding signal is 0.126 E-score.

For AGATACAT, the binding signal was -0.00932 E-score.

As for CCAACTAC, the binding signal worked out at 0.151 E-score.

On to GGGTCAGA, for which the binding signal was determined as 0.196 E-score.

For the sequence AATCGTAA, the binding signal was -0.16 E-score.

Regarding TGAGATAA, the binding signal was -0.124 E-score.

Regarding CACCGACA, the binding signal was 0.374 E-score.

Regarding CGACTTAA, the binding signal is -0.137 E-score.

Take ACCTCTCA: the binding signal is 0.0543 E-score.

Turning to AGCATAAG, the binding signal is -0.219 E-score.

Regarding AGTGAACA, the binding signal stood at 0.102 E-score.

With AAAATGCT, the binding signal was -0.158 E-score.

As to CGCCATGC, the binding signal was -0.19 E-score.

In the case of CCGTCTGA, the binding signal was 0.0396 E-score.

On to GGCGTTCA, for which the binding signal came out at 0.0504 E-score.

As for AGCACGGG, the binding signal was determined as 0.155 E-score.

As to CCGAATCC, the binding signal is 0.00344 E-score.

Turning to ATACGTGC, the binding signal amounted to 0.112 E-score.

Turning to ACCCGCGA, the binding signal is 0.239 E-score.

As for CCGGCTTC, the binding signal is -0.0559 E-score.

Consider CACCCGCC, for which the binding signal is 0.339 E-score.

Turning to ACATAGCG, the binding signal is -0.167 E-score.

With ATCGAACG, the binding signal is -0.042 E-score.

As for GATGTTAC, the binding signal is -0.0259 E-score.

AACACAGC: the binding signal is 0.0116 E-score.

For the sequence AGAGGTCA, the binding signal was -0.2 E-score.

For CACCTATA, the binding signal amounted to 0.301 E-score.

CGATCCTC: the binding signal came out at 0.132 E-score.

Regarding CGTGTATC, the binding signal came out at 0.39 E-score.

Consider GACGAGGC, for which the binding signal is -0.011 E-score.

For CACCAACC, the binding signal is 0.217 E-score.

As to TAACGACA, the binding signal worked out at 0.122 E-score.
